Laboratory results as given in PubChem BioAssay AID504832 (National Center for Advancing Translational Sciences (NCATS), 2011).
The campaign covered roughly 310,000 compounds. About 18,000 (5.8%) were called active. Inconclusive results, whose numbers are uncertain, are shown with a selection of clear calls. The call rests on the fitted dose curve; in most records, active means well fitted inhibition curve with a large enough effect; inconclusive means small, poorly fitted or top-dose-only effect, or another doubt; inactive means no such curve, though single readings can be large or run the other way. Potencies of inconclusive entries are left out as doubtful fits.

experiment: Primary qHTS for delayed death inhibitors of the malarial parasite plastid, 48 hour incubation; settings: P. falciparum luciferase growth in erythrocytes; series mostly up to 28.7 µM
Summary of the method: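 First compound was added to culture medium, then infected red cells at 0.1% parasitemia and 2% hematocrit (final). After incubation at 37 C under 5% CO2, luciferase detection reagent was dispensed and light output recorded.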
Potency means the concentration at half of the fitted maximal effect; tags describe the fitted curve by direction and shape.

| Compound | Potency |
| --- | --- |
| COc1cc(/C=C(\C#N)c2nc3ccccc3[nH]2)cc(OC)c1O | inconclusive [inhibitor, partial curve] |
| O=C(NCc1ccco1)/C(=C/c1ccco1)NC(=O)c1ccco1 | inactive |
| CCC(C)c1ccc(NC(=O)c2cccnc2)cc1 (configuration not stated) | inactive |
| OC(COc1ccc2cc(Br)ccc2c1)CN1CCCC1 (configuration not stated) | inconclusive [inhibitor, single point] |
| Nc1ccc(-c2nc3ccc(-c4nc5ccccc5o4)cc3[nH]2)cc1 | active: 9.28 µM |
| O=C(O)c1ccccc1C(c1ccc(O)cc1)c1ccc(O)cc1 | inactive |
| COc1cc2c(cc1OC)C1O[C@](c3ccsc3)(C2)Oc2c1c(=O)oc1ccc(F)cc21 | active: 1.51 µM |
| COc1cc(C(=O)O[C@H]2C/C(C)=C/CC[C@@]3(C)O[C@@H]3[C@H](O)[C@@H]2C(C)C)cc(OC)c1OC | inconclusive [inhibitor, full curve, poor fit] |
| CCNC(=S)NNC(=O)CCn1c2ccccc2c2ccccc21 | inconclusive [inhibitor, partial curve] |
| O=C(CCCl)Nc1nc2c(s1)CCc1ccccc1-2 | inconclusive [inhibitor, partial curve] |
| CCN(CC(=O)Nc1cc(Cl)ccc1C)C(=O)CSCc1ccccc1 | inconclusive [inhibitor, partial curve, poor fit] |
| COCCn1c(-c2cccs2)nc2nc3ccccc3nc21 | inconclusive [inhibitor, single point] |
| O=C(NC(=S)Nc1ccc(S(=O)(=O)N2CCCCC2)cc1)c1ccccc1 | inconclusive [inhibitor, single point] |
| CC(C)C(=O)Nc1ccc(C(=O)NNC(=O)CCc2ccccc2)cc1 | inactive |
| Cc1cccc2c1NC(=O)C2(c1ccc(O)cc1)c1ccc(O)cc1 | inconclusive [inhibitor, single point] |
| CC1CC(C)CN(C(=O)CNC(=O)Cn2ccc3ccccc3c2=O)C1 (configuration not stated) | inconclusive [inhibitor, full curve, poor fit] |
| COc1cccc(Nc2nc(-c3sc(N)nc3C)cs2)c1 | inconclusive [inhibitor, single point] |
| COc1ccc(-c2nc3ccccc3n2OC(C)C(=O)O)cc1 (configuration not stated) | inactive |
| CC(C)(C)C(=O)OC/C(N)=N/OC(=O)c1ccc(Cl)c(Cl)c1 | inconclusive [inhibitor, partial curve, poor fit] |
| O=C(CSc1nnc(-c2c[nH]c3ccccc23)o1)NCC1CCCO1 (configuration not stated) | inconclusive [inhibitor, single point] |
| CN(C)S(=O)(=O)c1cccc(-c2nn(-c3ccccc3)cc2/C=C(/C#N)C(=O)NCc2ccco2)c1 | inactive |
| OC(COc1ccc(CNCCc2ccc(C(F)(F)F)cc2)cc1)CN1CCCCC1 (configuration not stated) | active: 2.08 µM |
| Cc1ccn2c(=O)nc(SCC(=O)NCc3ccccc3)nc2c1 | inconclusive [inhibitor, partial curve, poor fit] |
| O=c1[nH]c(CSc2nnc3ccccn23)nc2cc(C(F)(F)F)ccc12 | inactive |

| Compound | Potency |
| --- | --- |
| COc1ccc(Cc2nnc(SCC(=O)Nc3ccccc3C)n(N)c2=O)cc1 | inactive |
| COc1ccc(OCC(NS(=O)(=O)c2ccc(-n3cnnn3)cc2)C(C)C)cc1 (configuration not stated) | inconclusive [inhibitor, single point] |
| CCCCN(C(=O)C1CC(=O)N(c2ccc(C)cc2)C1)c1c(N)n(CCC)c(=O)[nH]c1=O (configuration not stated) | inactive |
| CCOC(=O)c1cc2c(=O)n3ccccc3nc2n(Cc2ccco2)c1=NC(=O)c1cccc(OC)c1 | inconclusive [inhibitor, single point] |
| O=C(CSc1ccc(-c2ccccn2)nn1)N1CCCC1 | inactive |
| CCN1c2ccccc2-c2nc3ccccc3n2C1c1cccs1 (configuration not stated) | active: 8.28 µM |
| CC(C)OCCCNC1=C(Cl)C(=O)c2ccccc2C1=O | active: 2.94 µM |
| Cc1nc(SCC(=O)NCc2ccco2)c2c(=O)n(C)c(=O)n(CC(C)C)c2n1 | inconclusive [inhibitor, full curve] |
| Cc1cccc(NC(=S)NNC(=O)c2sccc2C)c1 | inactive |
| Cc1csc(N2CCN(c3cc4nc(-c5ccncc5)[nH]c4cc3Cl)CC2)n1 | inconclusive [inhibitor, partial curve, poor fit] |
| COc1ccc(C(=O)Nc2ccc(CN3CCOCC3)cc2)cc1Br | inactive |
| CCCCCN(C(=O)CCC(=O)OCc1cccc(C(F)(F)F)c1)c1c(N)n(CCCC)c(=O)[nH]c1=O | inactive |
| CCOc1cc([N+](=O)[O-])cc2c1C(=O)Nc1ccccc1O2 | inconclusive [inhibitor, partial curve] |
| COc1ccc(CCn2c(NN=C(C)C)nc3c2c(=O)[nH]c(=O)n3C)cc1 | inconclusive [inhibitor, single point] |
| COC(=O)c1ccccc1NC(=O)c1cc2sccc2n1C | inactive |
| CCOc1ccc(S(=O)(=O)Nc2ccc(C(=O)N(C)CC(=O)Nc3ccc(OC)cc3)cc2)cc1 | inconclusive [inhibitor, single point] |
| COc1ccc(CN(C(=O)CSc2nnc(-c3ccc(OC)c(OC)c3)o2)c2ccc(F)cc2)cc1 | active: 9.28 µM |
| COc1ccc(OC)c(-n2c(=S)[nH]c3cc(C(=O)N4CCN(c5ccccc5)CC4)ccc3c2=O)c1 | inconclusive [inhibitor, partial curve] |
| Cc1cccc(-c2ccc3ncnc(N(C)Cc4ccco4)c3c2)c1 | active: 11.7 µM |
| C[C@H](NC(=O)[C@H]1N2C(=O)c3ccccc3C2SC1(C)C)C(=O)NCC1CCCO1 (some centres not stated) | inactive |
| Cc1nn(-c2ccccc2)c(C)c1NC(=O)c1ccc(S(=O)(=O)N2CCCC2)cc1 | inconclusive [inhibitor, partial curve] |
| CN(C)c1ccc(N2CN=C3SCC(=O)N3C2)cc1 | active: 1.47 µM |
| CCN(CC)C(=O)CNC(=O)c1nn(-c2ccc(OC)c(Cl)c2)c(=O)c2ccccc12 | active: 4.15 µM |
| Oc1ccc(N2CCN(C(c3cccnc3)c3nnnn3Cc3ccccc3)CC2)cc1 (configuration not stated) | inconclusive [inhibitor, single point] |

| Compound | Potency |
| --- | --- |
| CCOC(=O)C1(CCOc2ccccc2)CCN(Cc2cc(OC)c(O)c(OC)c2)CC1 | inconclusive [inhibitor, partial curve] |
| O=C(NCc1ccc2c(c1)OCO2)c1cc2ccccc2o1 | inactive |
| C/C(N)=C(/C#N)C(=O)COC(=O)CCCNC(=O)c1ccc(Cl)cc1 | inactive |
| COc1ccc(-c2nc3ccccc3c(=O)n2CCOc2cccc(C)c2C)cc1 | inactive |
| CC(C)C[C@@H](C(=O)N[C@@H](C(=O)O)c1ccccc1)N1C(=O)N2CCc3c([nH]c4ccccc34)[C@@]2(C)C1=O | inconclusive [inhibitor, partial curve] |
| COc1cc(-c2cc(C(=O)NCCc3ccc(S(N)(=O)=O)cc3)c3ccccc3n2)cc(OC)c1OC | inconclusive [inhibitor, partial curve, poor fit] |
| O=S(=O)(Cc1ccccc1)NCCc1cccc(Cl)c1 | inactive |
| Cc1ccc(SCC(=O)NC2CCS(=O)(=O)C2)cc1 (configuration not stated) | inactive |
| Cc1ccc(-c2noc(-c3cc(C(C)(C)C)nn3Cc3ccccc3)n2)cc1 | inactive |
| COc1cc2c(cc1NC(=O)CSc1nc3ccccc3[nH]1)oc1ccccc12 | inconclusive [inhibitor, single point] |
| COc1cccc(/C=N/NC(=O)Cn2nc(C)c([N+](=O)[O-])c2C)c1O | active: 11.7 µM |
| O=C(NC(=S)Nc1cccnc1)c1ccccc1 | inactive |
| CCCn1c(SCC(=O)c2c(N)n(C3CC3)c(=O)[nH]c2=O)nnc1-c1ccncc1 | inconclusive [inhibitor, single point] |
| O=C(O)/C=C/c1cnc[nH]1 | inactive |
| O=C(CN1CCN(c2ccccc2O)CC1)Nc1ccc2c(c1)OCCCO2 | active: 13.1 µM |
| CCOC(=O)c1ccc(NC(=O)CCc2c(C)nc3ncnn3c2C)cc1 | inconclusive [inhibitor, single point] |
| CC1=CC(C)(C)N2C(=O)C3(C(C#N)=C(N)Oc4cc(C)oc(=O)c43)c3cccc1c32 (configuration not stated) | inconclusive [inhibitor, single point] |
| CCOC(=O)C1(CCOc2ccccc2)CCN(C(=O)c2ccc(-n3cccn3)cc2)CC1 | inconclusive [inhibitor, partial curve, poor fit] |
| CCOC(=O)C1=C(C)NC2=C(C(=O)CC(C)(C)C2)C1c1ccc(N(C)C)cc1 (configuration not stated) | active: 11.7 µM |
| CCN(CC)S(=O)(=O)c1ccc(C(=O)Nc2cccc(C)c2)cc1 | inconclusive [inhibitor, partial curve, poor fit] |
| O=C(/C=C/c1cccc(F)c1)N1CCN(c2ccccn2)CC1 | inactive |
| CC(NC(=O)Cn1nc(-c2ccccc2)ccc1=O)c1ccccc1 (configuration not stated) | inconclusive [inhibitor, partial curve] |
| CC(C)(C)OC(=O)NCCC(=O)N/N=C/c1cccc2cccnc12 | inconclusive [inhibitor, single point] |
| NS(=O)(=O)c1ccc(CCNC(=O)c2ccc3c(c2)N(Cc2ccccc2)CCS3)cc1 | inconclusive [inhibitor, partial curve, poor fit] |
